# According to the supplement of paper PMC10037445:
# Whole data set: some 2,900 compounds, median “NF-kB SEAP reporter activity, fold change vs agonist alone” near 0.99, cut for the highest 2% near 2.6. Some of the results follow.
# Key:
# RAW-Dual [1] = experiment: NF-kB SEAP reporter activity, fold change vs agonist alone; higher = enhanced NF-kB activity; settings: library stock concentration (final ~1000-fold dilution): 10 mM
# In short: (§1)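 Cytotoxic wells were those whose IncuCyte confluency was below 70% of agonist controls in both mask sets. The cells were RAW-Dual macrophages at 50,000 cells/well in DMEM on 384-well plates, dosed with 50 nL of library stock by pin tool, stimulated with a PRR agonist 1 h later, and kept at 37 °C, 5% CO2 for 20 hours. IRF and NF-κB reporter activity, as fold change over agonist-alone wells, came from supernatant read by QuantiLuc luminescence and QuantiBlue absorbance, respectively.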
# RAW-Dual [2] = experiment: NF-kB SEAP reporter activity, fold change vs agonist alone; cytotoxicity flag (confluency mask): not cytotoxic; higher = enhanced NF-kB activity
# In short: as §1
# RAW-Dual [3] = experiment: NF-kB SEAP reporter activity, fold change vs agonist alone; cytotoxicity flag (confluency mask): cytotoxic (confluency <70% of control); higher = enhanced NF-kB activity
# In short: as §1
# [4] = cytotoxicity flag (confluency mask): not cytotoxic, agonist: Imiquimod (TLR7) […]
# [5] = cytotoxicity flag (confluency mask): not cytotoxic, agonist: MPLA (TLR4) […]
# [6] = agonist: ODN 1826 (TLR9) 0.5 ug/mL
# [7] = agonist: Pam2CSK4 (TLR2/6) 0.1 ug/mL
# [8] = agonist: Pam3CSK4 (TLR2/1) 0.1 ug/mL
# [9] = cytotoxicity flag (confluency mask): cytotoxic (confluency <70% of control), agonist: Imiquimod (TLR7) […]
# [10] = cytotoxicity flag (confluency mask): cytotoxic (confluency <70% of control), agonist: MPLA (TLR4) […]
smiles,measurement,setting,value
CC(Cc1cc2c(c(C(N)=O)c1)N(CCCO)CC2)NCCOc1ccccc1OCC(F)(F)F (centres undefined),NF-kB SEAP reporter activity,RAW-Dual [1]; [4],0.856
same,NF-kB SEAP reporter activity,RAW-Dual [1]; [5],1.03
CC(Cc1cc2c(c(C(N)=O)c1)N(CCCO)CC2)NCCOc1ccccc1OCC(F)(F)F (centres undefined) (library stock concentration (final ~1000-fold dilution): 10 mM),NF-kB SEAP reporter activity,RAW-Dual [2]; agonist: LPS (TLR4) 0.1 ug/mL,1.23
same,NF-kB SEAP reporter activity,RAW-Dual [2]; [6],0.852
same,NF-kB SEAP reporter activity,RAW-Dual [2]; [7],1.02
same,NF-kB SEAP reporter activity,RAW-Dual [2]; [8],1.15
Cc1ccc(O)c(C(CCN(C(C)C)C(C)C)c2ccccc2)c1.O=C(O)C(O)C(O)C(=O)O (centres undefined),NF-kB SEAP reporter activity,RAW-Dual [1]; [4],1.12
same,NF-kB SEAP reporter activity,RAW-Dual [1]; [5],1.05
Cc1ccc(O)c(C(CCN(C(C)C)C(C)C)c2ccccc2)c1.O=C(O)C(O)C(O)C(=O)O (centres undefined) (library stock concentration (final ~1000-fold dilution): 10 mM),NF-kB SEAP reporter activity,RAW-Dual [2]; agonist: LPS (TLR4) 0.1 ug/mL,1.35
same,NF-kB SEAP reporter activity,RAW-Dual [2]; [6],0.656
same,NF-kB SEAP reporter activity,RAW-Dual [2]; [7],0.924
same,NF-kB SEAP reporter activity,RAW-Dual [2]; [8],0.999
O=c1cc(-c2ccccc2)oc2c1ccc1ccccc12,NF-kB SEAP reporter activity,RAW-Dual [1]; [5],1.2
O=c1cc(-c2ccccc2)oc2c1ccc1ccccc12 (library stock concentration (final ~1000-fold dilution): 10 mM),NF-kB SEAP reporter activity,RAW-Dual [2]; agonist: LPS (TLR4) 0.1 ug/mL,0.691
same,NF-kB SEAP reporter activity,RAW-Dual [2]; [6],0.933
same,NF-kB SEAP reporter activity,RAW-Dual [2]; [7],0.846
same,NF-kB SEAP reporter activity,RAW-Dual [2]; [8],0.982
CCN(CC)CCCCNc1ncc2cc(-c3cc(OC)cc(OC)c3)c(NC(=O)NC(C)(C)C)nc2n1,NF-kB SEAP reporter activity,RAW-Dual [1]; [9],2.8
same,NF-kB SEAP reporter activity,RAW-Dual [1]; [10],2.71
CCN(CC)CCCCNc1ncc2cc(-c3cc(OC)cc(OC)c3)c(NC(=O)NC(C)(C)C)nc2n1 (library stock concentration (final ~1000-fold dilution): 10 mM),NF-kB SEAP reporter activity,RAW-Dual [3]; agonist: LPS (TLR4) 0.1 ug/mL,0.324
same,NF-kB SEAP reporter activity,RAW-Dual [3]; [6],0.891
same,NF-kB SEAP reporter activity,RAW-Dual [3]; [7],1.72
same,NF-kB SEAP reporter activity,RAW-Dual [3]; [8],1.56
CC(C)(F)CC(NC(c1ccc(-c2ccc(S(C)(=O)=O)cc2)cc1)C(F)(F)F)C(=O)NC1(C#N)CC1 (centres undefined) (library stock concentration (final ~1000-fold dilution): 10 mM),NF-kB SEAP reporter activity,RAW-Dual [2]; agonist: LPS (TLR4) 0.1 ug/mL,0.968
same,NF-kB SEAP reporter activity,RAW-Dual [2]; [6],1.15
same,NF-kB SEAP reporter activity,RAW-Dual [2]; [7],0.937
same,NF-kB SEAP reporter activity,RAW-Dual [2]; [8],0.97
CC(C)(F)CC(NC(c1ccc(-c2ccc(S(C)(=O)=O)cc2)cc1)C(F)(F)F)C(=O)NC1(C#N)CC1 (centres undefined),NF-kB SEAP reporter activity,RAW-Dual [1]; [4],0.932
same,NF-kB SEAP reporter activity,RAW-Dual [1]; [5],1.02
C=CS(=O)(=O)NC1CCN(C(=O)CNc2cc(I)c(Cl)cc2OC)CC1,NF-kB SEAP reporter activity,RAW-Dual [1]; [4],0.764
same,NF-kB SEAP reporter activity,RAW-Dual [1]; [5],0.205
C=CS(=O)(=O)NC1CCN(C(=O)CNc2cc(I)c(Cl)cc2OC)CC1 (library stock concentration (final ~1000-fold dilution): 10 mM),NF-kB SEAP reporter activity,RAW-Dual [2]; agonist: LPS (TLR4) 0.1 ug/mL,0.173
same,NF-kB SEAP reporter activity,RAW-Dual [2]; [6],0.35
same,NF-kB SEAP reporter activity,RAW-Dual [2]; [7],0.331
same,NF-kB SEAP reporter activity,RAW-Dual [2]; [8],0.142
Cc1ccc(Oc2ccnc3cc(-c4cnn(C5CCNCC5)c4)ccc23)cc1 (library stock concentration (final ~1000-fold dilution): 10 mM),NF-kB SEAP reporter activity,RAW-Dual [3]; agonist: LPS (TLR4) 0.1 ug/mL,0.433
same,NF-kB SEAP reporter activity,RAW-Dual [3]; [6],0.213
same,NF-kB SEAP reporter activity,RAW-Dual [3]; [7],0.181
same,NF-kB SEAP reporter activity,RAW-Dual [3]; [8],0.175
Cc1ccc(Oc2ccnc3cc(-c4cnn(C5CCNCC5)c4)ccc23)cc1,NF-kB SEAP reporter activity,RAW-Dual [1]; [9],0.526
same,NF-kB SEAP reporter activity,RAW-Dual [1]; [10],0.922
COc1cc([C@H]2OC[C@H]3[C@@H]2CO[C@H]3c2ccc(OC)c(OC)c2)ccc1O,NF-kB SEAP reporter activity,RAW-Dual [1]; [4],0.719
same,NF-kB SEAP reporter activity,RAW-Dual [1]; [5],0.983
COc1cc([C@H]2OC[C@H]3[C@@H]2CO[C@H]3c2ccc(OC)c(OC)c2)ccc1O (library stock concentration (final ~1000-fold dilution): 10 mM),NF-kB SEAP reporter activity,RAW-Dual [2]; agonist: LPS (TLR4) 0.1 ug/mL,1.01
same,NF-kB SEAP reporter activity,RAW-Dual [2]; [6],1
same,NF-kB SEAP reporter activity,RAW-Dual [2]; [7],0.992
same,NF-kB SEAP reporter activity,RAW-Dual [2]; [8],1.15
O=C(CCCS)NC1CCN(C(=O)COc2ccc(Cl)cc2Cl)CC1,NF-kB SEAP reporter activity,RAW-Dual [1]; [4],0.922
same,NF-kB SEAP reporter activity,RAW-Dual [1]; [5],1.09
